The whole screen tested about 220,000 compounds, of which about 16,000 (7.3%) were called active. Inconclusive means that the source gave no clear call. Such entries were picked first, then a sample of the others. Calls follow the shape of the dose curve; as a rule, active = well fitted inhibition curve with a large enough effect (not every such curve was filed as active); inconclusive = small, poorly fitted or top-dose-only effect, or another doubt; inactive = no such curve, though single readings can be large or run the other way. Potencies of inconclusive entries are left out as doubtful fits.
The molecules below were run against Aldehyde dehydrogenase 1A1 (Homo sapiens) (UniProt P00352) (assay: qHTS Assay for Inhibitors of Aldehyde Dehydrogenase 1 (ALDH1A1)). Details: Purified ALDH1A1, NADH fluorescence, propionaldehyde substrate; series mostly up to 75.3 µM; activity, negative = inhibition: at the top concentration.
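For activity, negative = inhibition in this document: plate controls were no enzyme wells and a reference inhibitor.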
Potency is read from the fitted curve at half-maximal effect; tags tell the direction and shape of the fitted curve.

Sequence of UniProt P00352 (P00352 whole entry, looked up): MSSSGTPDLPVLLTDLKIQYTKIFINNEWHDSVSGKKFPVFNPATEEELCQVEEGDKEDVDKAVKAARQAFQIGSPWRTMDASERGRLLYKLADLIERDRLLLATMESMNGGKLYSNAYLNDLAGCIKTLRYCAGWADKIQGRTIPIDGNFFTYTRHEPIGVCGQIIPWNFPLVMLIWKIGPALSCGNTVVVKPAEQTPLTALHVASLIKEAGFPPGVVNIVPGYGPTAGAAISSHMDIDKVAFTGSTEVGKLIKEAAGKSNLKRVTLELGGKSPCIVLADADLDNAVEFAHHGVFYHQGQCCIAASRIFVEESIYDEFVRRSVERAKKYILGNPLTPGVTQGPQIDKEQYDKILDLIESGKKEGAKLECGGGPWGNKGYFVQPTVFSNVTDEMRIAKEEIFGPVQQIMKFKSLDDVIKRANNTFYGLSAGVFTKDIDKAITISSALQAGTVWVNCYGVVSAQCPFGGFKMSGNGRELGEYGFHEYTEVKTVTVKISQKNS

SMILES	Potency	activity, negative = inhibition
O=C(N/N=C/c1cn[nH]c1-c1ccccc1)c1ccco1	inconclusive [inhibitor, single point]	
CC1(OC(=O)c2cccs2)C(=O)C=C2C=C3CCCN3C=C2C1=O (stereo not given)		inactive: 1.62% [at 13.5 µM]
COc1cc(C2C3C(=O)N(Cc4ccccc4)C(=O)C3ON2c2ccccc2)cc(OC)c1O (stereo not given)	inconclusive [inhibitor, partial curve]	
CC1(C)CC(=O)C=C(N2CCN(C3=CC(=O)CC(C)(C)C3)CC2)C1	active: 20 µM	
CCOC(=O)c1c(C)oc2c1c(CN1CCN(C(=O)OCC)CC1)c(O)c1ccccc12	active: 1.58 µM	
COc1cccc(CC2(CO)CCCN(Cc3cn[nH]c3-c3cc(C)ccc3C)C2)c1 (stereo not given)		inactive: 3.22%
COC(=O)c1ccc(NC(=O)CSc2nnc(Cc3cccn3C)n2-c2ccc(F)cc2)cc1	active: 22.4 µM	
CCC(N=c1cc(-c2ccc(OC)cc2)oc2ccc(C)cc12)C(=O)O (stereo not given)	inconclusive [inhibitor, partial curve]	
CCOC(=O)c1sc(=S)n(-c2ccc(Cl)cc2)c1C	inconclusive [inhibitor, single point]	
CC1(C)Cc2c(C#N)c(SCCC#N)nc(N3CCOCC3)c2CS1	inconclusive [inhibitor, partial curve, poor fit]	
Cc1ccc(Cl)c(OCC(=O)OCC(=O)NC2CCCc3ccccc32)c1 (stereo not given)		inactive: -5.82%
CC(C)NC(=O)N1CC[C@@]2(CCCN(C(=O)Oc3ccccc3)C2)C1		inactive: 30.2%
Cc1nc2cnc(Oc3cccc(Cl)c3)nc2n(C[C@H]2CCCO2)c1=O	inconclusive [inhibitor, single point]	
Cc1cccc(Oc2ncnc3oc(-c4ccccc4)cc23)c1C	inconclusive [inhibitor, single point]	
O=S(=O)(NCC1CCCO1)c1cnc(Cl)c(Br)c1 (stereo not given)	inconclusive [inhibitor, single point]	
CC1S/C(=N/N=C2CCC(C(C)(C)C)CC2)NC1=O (stereo not given)	inconclusive [inhibitor, partial curve]	
FC(F)(F)c1cc(-c2ccccc2)nc2ncnn12	inconclusive [inhibitor, single point]	
COc1ccc(C(Nc2ccc(S(=O)(=O)NCC3CCCO3)cc2)C(=O)NC(C)(C)C)cc1OC (stereo not given)	inconclusive [inhibitor, single point]	
O=C(CSc1ncn(-c2ccccc2)n1)Nc1nc2c(s1)CCCC2	active: 28.2 µM	
Cc1nc([N+](=O)[O-])c(SCC(N)=O)n1Cc1ccccc1	inconclusive [inhibitor, single point]	
Cc1cc(Cl)ccc1Oc1ncnc2onc(C)c12		inactive: 13.9%
Cc1ccc(NC(=O)C(OC(=O)c2cc(C)oc2C)c2ccccc2)cc1 (stereo not given)	inconclusive [inhibitor, single point]	
COC(=O)c1c(N2C(=O)CCC2=O)sc2c1CCCC2	inconclusive [inhibitor, single point]	

SMILES	Potency	activity, negative = inhibition
Nc1nonc1-c1nc2ccccc2n1CC(=O)N/N=C/c1ccc(-c2ccccc2C(=O)O)o1	inconclusive [inhibitor, single point]	
CCOC(=O)c1c(NC(=O)CNCCOC)sc2c1CCCC2	active: 25.1 µM	
CCOC(=O)c1sc2nc(C)cc(-c3ccccc3)c2c1N	inconclusive [inhibitor, single point]	
Cc1ccc(O)c(-c2cc(C(F)(F)F)[nH]n2)c1		inactive: 7.87%
O=C(CNc1ccccc1)NN=C1CCCC1	inconclusive [inhibitor, single point]	
CCCNC(=O)COc1nc2ccccc2nc1N1CCOCC1		inactive: 1.72%
N#Cc1c(NCCCO)nc(NCc2ccccc2)c2c1CCN(Cc1ccccc1)C2	inconclusive [inhibitor, single point]	
CN(Cc1ccc(-n2cccn2)cc1)Cc1nc(-c2cnccn2)no1		inactive: 9.64%
O=C1OCCC1Sc1nc2ccccc2c(=O)n1-c1ccc(F)cc1 (stereo not given)	inconclusive [inhibitor, single point]	
O=C(c1ccc(-c2ccc(Cl)cc2)o1)N1CCN(c2ccc([N+](=O)[O-])cc2Cl)CC1	active: 3.16 µM	
Cc1cc(NC(=O)c2ccc3c(c2)C(=O)N(Cc2ccccc2)C3=O)no1		inactive: -1.24%
C(=C\c1ccco1)/C=N/n1cnnc1	active: 3.16 µM	
CC1(C)CC(=O)C=C(NCCc2ccc(S(N)(=O)=O)cc2)C1	inconclusive [inhibitor, single point]	
COc1ccc(CC(=O)Nc2nnc(SCc3ccccc3)s2)cc1S(=O)(=O)N1CCOCC1	inconclusive [inhibitor, single point]	
CNc1ccc(/C=C(\CCC(=O)O)c2nc3ccccc3s2)cc1[N+](=O)[O-]	inconclusive [inhibitor, partial curve]	
COc1ccc(S(=O)(=O)NC(CC(=O)NCCc2ccccc2)c2ccco2)cc1 (stereo not given)	inconclusive [inhibitor, single point]	
N=c1c(C(=O)NCc2ccco2)cc2c(=O)n3ccccc3nc2n1Cc1ccccc1	inconclusive [inhibitor, partial curve]	
CCOC(=O)C1CCN(C(=O)c2cc3cc4cc(OC)ccc4nc3o2)CC1	inconclusive [inhibitor, partial curve]	
Cc1cccc(CSc2ccc3nnc(-c4cccnc4)n3n2)c1	inconclusive [inhibitor, partial curve]	
Cc1nc2ccccn2c1C(=O)Nc1ccc2c(c1)OCCO2	inconclusive [inhibitor, single point]	
COc1cc(C2CC(=O)N(CC(=O)NCC3CCCO3)c3ccccc3S2)cc(OC)c1OC (stereo not given)	inconclusive [inhibitor, partial curve]	
O=C(NCc1ccccc1)N1CCC(CO)(CCc2ccccc2)CC1		inactive: -2.54%

— PubChem BioAssay AID1030 (National Center for Advancing Translational Sciences (NCATS), 2008)
